# Measurements: article PMC4336329 (PLoS ONE, 2015)
# Among all 310,000 compounds or so, about 2,200 (0.71%) showed an effect of 50% or more. Effects have a minus sign here. The list shows a part of the results.
# Target: human ether-à-go-go-related gene (hERG) potassium channel (human, UniProt Q12809)
# Test: primary screen, population patch clamp on CHO cells stably expressing hERG
# Sequence of human ether-à-go-go-related gene (hERG) potassium channel (Q12809 whole entry, looked up): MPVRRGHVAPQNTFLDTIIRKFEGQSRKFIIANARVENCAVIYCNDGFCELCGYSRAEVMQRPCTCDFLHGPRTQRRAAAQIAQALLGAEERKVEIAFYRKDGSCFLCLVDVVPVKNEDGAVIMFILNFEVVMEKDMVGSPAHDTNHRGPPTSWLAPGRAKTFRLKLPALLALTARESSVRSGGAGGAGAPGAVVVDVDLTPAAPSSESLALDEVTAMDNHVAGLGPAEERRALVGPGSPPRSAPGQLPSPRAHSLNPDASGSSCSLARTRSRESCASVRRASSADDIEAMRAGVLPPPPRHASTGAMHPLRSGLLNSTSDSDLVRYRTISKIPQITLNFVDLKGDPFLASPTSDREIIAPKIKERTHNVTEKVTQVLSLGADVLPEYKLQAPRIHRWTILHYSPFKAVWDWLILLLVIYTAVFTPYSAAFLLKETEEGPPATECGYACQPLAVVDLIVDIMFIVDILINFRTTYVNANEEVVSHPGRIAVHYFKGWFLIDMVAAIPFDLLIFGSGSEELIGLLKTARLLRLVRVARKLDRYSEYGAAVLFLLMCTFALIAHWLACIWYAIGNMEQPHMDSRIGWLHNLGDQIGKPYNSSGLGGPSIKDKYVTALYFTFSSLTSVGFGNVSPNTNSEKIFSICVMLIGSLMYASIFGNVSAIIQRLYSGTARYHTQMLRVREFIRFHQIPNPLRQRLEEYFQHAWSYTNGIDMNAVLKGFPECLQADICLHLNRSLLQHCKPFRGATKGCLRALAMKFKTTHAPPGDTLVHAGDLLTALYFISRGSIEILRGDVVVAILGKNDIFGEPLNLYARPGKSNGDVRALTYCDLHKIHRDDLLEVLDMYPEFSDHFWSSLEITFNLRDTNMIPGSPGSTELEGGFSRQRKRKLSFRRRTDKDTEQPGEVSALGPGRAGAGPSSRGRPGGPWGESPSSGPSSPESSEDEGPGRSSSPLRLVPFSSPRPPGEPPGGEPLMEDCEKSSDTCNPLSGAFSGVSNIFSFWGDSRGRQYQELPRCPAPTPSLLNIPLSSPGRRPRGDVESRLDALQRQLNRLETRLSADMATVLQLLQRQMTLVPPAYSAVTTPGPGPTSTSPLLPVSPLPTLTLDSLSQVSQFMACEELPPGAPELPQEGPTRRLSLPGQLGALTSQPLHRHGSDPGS
row,SMILES,"hERG current change (%, negative = inhibition) at 1uM [%]"
1,CCOc1ccc(CNC(=O)C(CC)n2nc(C)n3c(cc4occc43)c2=O)cc1OC (centres unmarked),3.66
2,CCn1ncc(C2=NOC(C(=O)NCC(C)C)C2)c1C (centres unmarked),5.97
3,O=[N+]([O-])c1ccccc1-n1cnc2ccccc21,14.3
4,CCS(=O)(=O)N1Cc2ccccc2CC1C(=O)Nc1cccc(S(=O)(=O)N(C)C)c1 (centres unmarked),16.1
5,COCCNc1cc(C)nc2c(-c3ccccc3OC)c(C)nn12,5.98
6,O=C(O)c1ccc(C(=O)c2ccc3c(c2)C(=O)N(CC2CCCO2)C3=O)cc1 (centres unmarked),14.4
7,COc1cc([N+](=O)[O-])ccc1NC(=O)CN1CCc2cc(OC)c(OC)cc2C1,6.32
8,C=CCC1NS(=O)(=O)OCC1NC(=O)OCC(Cl)(Cl)Cl (centres unmarked),12.3
9,S=C(Nc1cccnc1)Nc1ccccn1,10.5
10,Cc1nn(Cc2c(F)c(F)c(F)c(F)c2F)c(C)c1NC(=O)c1cccc(COc2ccccc2Cl)c1,-3.99
11,Cc1ccc(C)c2[nH]c(=O)c(CCNC(=O)C(C)(C)C)cc12,15.6
12,CCSc1nnc(-c2ccccc2SC)o1,10.8
13,CCO[C@@H]1OC(C(N)=O)=C[C@H](c2cn(C(C)=O)c3ccccc23)[C@H]1CCCO,5.16
14,O=C(NN1CCOCC1)c1cc(-c2ccc(Br)cc2)nc2ccccc12,3.31
15,O=C(NC1CCCCCC1)c1ccc2nc3cc(Cl)ccc3c(=O)n2c1,4.2
16,CC1(C)Oc2ccc3ccc(=O)oc3c2C(N2CCCCC2)C1O (centres unmarked),0.376
17,Cn1cnnc1SCC(=O)NC1CCCN(Cc2ccc(Cl)cc2)C1 (centres unmarked),9.98
18,O=C(CCN1CCOCC1)NCC1COc2ccccc2O1 (centres unmarked),14.1
19,Cc1cccc(C(=O)NCC(=O)N2CCCCCCC2)c1,10.1
20,COc1cc2c(CCNC(C)=O)c[nH]c2cc1O,8.32
21,CC(C)CCn1c(SCC#N)nc2c(sc3ccccc32)c1=O,11.1
22,Cc1onc(-c2c(F)cccc2Cl)c1C(=O)NC(=S)NCc1cccnc1,14.7
23,OC(CNCc1ccccc1C(F)(F)F)C(F)(F)F (centres unmarked),6.66

row,SMILES,"hERG current change (%, negative = inhibition) at 1uM [%]"
1,Cc1cc(C(=O)CSc2nc(N)cc(=O)[nH]2)c(C)n1Cc1ccco1,9.98
2,O=C(Cn1cccc1C(=O)c1ccccc1)NCc1ccccn1,11.3
3,Nc1cccc2nsnc12,6.97
4,Cc1cc(SCC(=O)OCC(=O)c2c(N)n(C)c(=O)n(C)c2=O)c(C)cc1Br,1.38
5,O=C(NCc1ccco1)c1ccc2c(c1)C(=O)N(Cc1ccccc1)C2=O,-27.1
6,CC(C)NCCOc1cccc(Br)c1.O=C(O)C(=O)O,16.2
7,O=C(Nc1ccc2oc(-c3ccccc3)nc2c1)c1ccc2c(c1)OCCO2,20.5
8,CCN(CC)c1nc(N(CC)CC)[nH]c(=O)n1,-0.561
9,COc1ccc(-c2nc(C#N)c(NCc3ccc(C)cc3)o2)cc1OC,7.64
10,O=C(/C=C/c1ccc([N+](=O)[O-])cc1)N1CCN(c2ccccc2F)CC1,-7.11
11,COc1ccc(OC(C)C(=O)N(C)Cc2nc(-c3cccc(C)c3)no2)cc1 (centres unmarked),14.4
12,CCCC(=O)c1cc(F)c(N2CCN(CCC#N)CC2)cc1C,7.56
13,Cc1cc(OCC(=O)OCC(=O)NC2CCCC2)ccc1Cl,15
14,O=C(Nc1ccc(Cl)cn1)c1ccc2nccnc2c1,9.23
15,Cc1ccc(NC(=O)CNCc2cccs2)c(Br)c1.Cl,3.24
16,O=C(O)/C=C/c1cn(-c2ccccc2)nc1-c1cc2ccccc2oc1=O,9.46
17,c1ccc(CSc2nnc3ccc(-c4cccs4)nn23)nc1,4.57
18,O=C(NCCCl)NNC(=O)c1cc2ccccc2cc1O,10.9
19,Cl.c1ccc2c(c1)CN1CCCC1=N2,8.81
20,CCS(=O)(=O)Nc1cccc(C2=NN(S(C)(=O)=O)C(c3ccccc3)C2)c1 (centres unmarked),9.9
21,CC1(C)O[C@@H]2[C@H](O1)[C@@H](COS(=O)(=O)[O-])O[C@H]2n1ccc(=O)[nH]c1=O.[K+],7.78
22,O=C(O)C1CC(c2cccc(Br)c2)=NO1 (centres unmarked),11.2
23,CC(C)(C)N(Cc1ccccc1)C(=O)COC(=O)C1CCN(c2ccc(C(F)(F)F)cn2)CC1,17.7

row,SMILES,"hERG current change (%, negative = inhibition) at 1uM [%]"
1,O=C(NNC1=Nc2ccccc2SC1)c1ccc(F)cc1,11.9
2,O=C(COC(=O)C12CC3CC(CC(C3)C1)C2)NC12CC3CC(CC(C3)C1)C2,7.85
3,O=C(CNCc1cccnc1)Nc1cc(C(F)(F)F)ccc1N1CCOCC1.O=C(O)C(=O)O,-19.2
4,CCOc1ccc(C(C(=O)NC2CCCCC2)N(C(=O)Cc2cccs2)c2ccc(-n3cnnn3)c(OC)c2)cc1 (centres unmarked),6.88
5,O=c1n(Cc2ccccc2F)c2ccccc2n1Cc1ccccc1F,14.5
6,CCc1c(C(=O)NCc2ccccc2Cl)[nH]c(C)c1C(C)=O,11.1
7,COCCN(CC(=O)Nc1ccccc1)S(=O)(=O)c1ccc(S(=O)(=O)N2CCCC2)cc1,6.19
8,Cc1ccc(C)c(S(=O)(=O)Nc2ccc3[nH]c(=O)[nH]c3c2)c1,8.83
9,COc1cc(/C=N/NC(=O)c2ccncc2)ccc1Oc1ccc([N+](=O)[O-])cn1,3.18
10,CCC1CCCCN1S(=O)(=O)c1ccccc1[N+](=O)[O-] (centres unmarked),16.3
11,N#Cc1ccc(CSCC(=O)NN=C2CCCC2)cc1,7.68
12,CCC1CN(C(=O)N2CCC(C(=O)NCc3ccc(C)o3)CC2)c2cc(C)ccc2O1 (centres unmarked),7.45
13,CC1(C)Cc2c(sc(NC(=O)/C=C/C(=O)O)c2C#N)CO1,14.2
14,CCOc1ccccc1NC(=S)NCC1CCCO1 (centres unmarked),7.87
15,CCCC1(C(=O)OCC)NC(c2ccc(N(C)C)cc2)C2C(=O)N(c3ccccc3)C(=O)C21 (centres unmarked),1.24
16,COc1ccc(S(=O)(=O)N2CCCC2C(=O)Nc2nnc(-c3cccnc3)s2)cc1 (centres unmarked),10.5
17,COc1cc(-c2noc(C)c2C(=O)NCCc2c[nH]c3ccccc23)cc(OC)c1OC,14.5
18,C=CCNc1nc2c(c(=O)[nH]c(=O)n2C)n1CCCc1ccccc1,1.64
19,N#CC1=C2SCN(Cc3ccccc3)CN2C(=O)CC1c1ccccc1F (centres unmarked),10.4
20,COc1ccc(C(=O)CC(=O)c2ccc(OC)cc2)cc1,15.8
21,COc1cccc(NC(=O)CSc2ccc(-c3sc(C)nc3C)nn2)c1,10.4
22,COc1cc(NC(=O)c2cccs2)ccc1NC(=O)c1ccccc1Cl,6.14
23,C=CCOc1c2ccc(C(=O)NC3CCCc4ccccc43)cc2nn1C (centres unmarked),6.6

row,SMILES,"hERG current change (%, negative = inhibition) at 1uM [%]"
1,O=S(=O)(Nc1ccccn1)c1cccc(S(=O)(=O)c2ccc(Br)cc2)c1,1.92
2,C=CCn1c(NC(=O)c2ccc(Br)o2)c(S(=O)(=O)c2ccccc2)c2nc3ccccc3nc21,8.45
3,O=C(O)c1ccc(NC(=S)NC(=O)c2cccnc2)cc1,16.2
4,CS(=O)(=O)c1cccc(-c2nnc(NC(=O)C3=COCCO3)o2)c1,0.983
5,O=C(NCc1ccc(F)cc1)C(c1ccccc1)N(C(=O)c1csnn1)C1CCCC1 (centres unmarked),10.1
6,O=C(CN1C(=O)CNC1=O)Nc1cccc(C(F)(F)F)c1,15.1
7,O=C(CSCc1ccccc1)NNC(=S)Nc1cccc(Cl)c1Cl,2.19
8,Cl.Clc1ccc(CSC2=NCCCN2)cc1Cl,3.8
9,CS(=O)(=O)N1N=C(c2ccccc2)CC1c1cccs1 (centres unmarked),13.4
10,Cc1c(Cl)c([N+](=O)[O-])nn1CC(=O)N1CCCc2ccccc21,24.8
11,Cc1ncc(CN2CCN(Cc3ccc(F)cc3)C(CCO)C2)s1 (centres unmarked),28
12,COCCCNC(=O)CS(=O)Cc1nc(-c2ccccc2C)oc1C (centres unmarked),1.15
13,O=C(NNC(=O)c1cccs1)c1cccnc1,10
14,O=C(CN1C(=O)COc2ccccc21)N(CCCN1CCOCC1)CC1CC=CCC1 (centres unmarked),4.77
15,O=C(NCc1ccco1)C(c1cccs1)N(C(=O)C1COc2ccccc2O1)c1cccc(O)c1 (centres unmarked),-3.63
16,Cc1ccc(CN2CCN(CC(C)C)C(CCO)C2)s1 (centres unmarked),2.88
17,C[C@@H]1CCC2[C@](C)(CO)[C@@H](O)CC[C@]2(C)[C@@]12CCC(CO)(CCO)O2 (some centres unmarked),33.2
18,COc1ccc(/C=C(/NC(=O)c2ccccc2Cl)C(=O)NCCCC(=O)O)cc1,17.7
19,CCn1c(Cc2ccccc2)nnc1SCC(=O)c1c(N)n(C2CC2)c(=O)[nH]c1=O,-5.82
20,COc1cc(NC2c3ccccc3C(=O)N2c2ccc(C)cn2)cc(OC)c1OC (centres unmarked),-6.43
